# ± gives the standard deviation of the averaged measurements. In all, about 4,000 sequences were measured (“arbitrary fluorescence units”: median about 830, highest 2% from about 6,500 on). This part holds few or none of the hits.
# Molecular target: RUNX1 (UniProt Q01196)
# Experiment: RUNX1 binding intensity (PBM fluorescence), RUNX1 alone (arbitrary fluorescence units); higher = stronger binding
# Conditions: RUNX1 concentration 2 nM; ETS1 concentration 0 nM
# Procedure: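 gcPBM on 36-bp genomic-derived probes (partner site mutated) containing one RUNX1 site and no ETS1 site. Recombinant human RUNX1 (2 nM) was incubated alone or with ETS1 (25 nM) and detected by anti-RUNX1 antibody fluorescence. Values are medians over 4 replicate spots (not normalised). The probes sit in constant array flanks that are not printed.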
# 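Note: Full-length recombinant human RUNX1 bound to double-stranded DNA microarray spots, detected with an Alexa488-labelled secondary antibody after the anti-RUNX1 primary, read as scanned spot fluorescence.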
# Chain of UniProt Q01196 (Q01196 whole entry): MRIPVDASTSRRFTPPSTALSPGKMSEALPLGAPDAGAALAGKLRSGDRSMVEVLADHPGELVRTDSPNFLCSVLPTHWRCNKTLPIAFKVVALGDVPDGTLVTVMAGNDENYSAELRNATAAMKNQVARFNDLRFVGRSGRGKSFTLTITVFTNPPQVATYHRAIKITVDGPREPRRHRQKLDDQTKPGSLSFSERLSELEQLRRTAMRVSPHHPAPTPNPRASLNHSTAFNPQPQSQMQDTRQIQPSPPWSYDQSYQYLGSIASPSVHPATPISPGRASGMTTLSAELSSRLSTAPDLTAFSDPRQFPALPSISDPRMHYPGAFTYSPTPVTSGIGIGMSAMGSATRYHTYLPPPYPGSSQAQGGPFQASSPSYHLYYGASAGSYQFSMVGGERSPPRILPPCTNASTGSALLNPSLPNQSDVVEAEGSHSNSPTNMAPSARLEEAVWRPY
row,Sequence,RUNX1 binding intensity
1,TCAGCGGCCGCAGAAAGCCCACGACCAGCCGAACGC,888
2,TAAGGGAGCTGAGGGGAGGGTGTTATGACCACATCA,681
3,GGGTTGCCATGATGACTCCGCGGTACCCCGCCCCGC,816
4,ACAGCATTTGCTGGTGGCCAGATATCTGAGGTTTCA,683
5,CATCCAGGACGGAGACAGCATCCCCACCGCGGGAGC,759
6,CACGCTTGCTACCACAAAAAGGAGATGCATCTGCAG,919
7,GGGCAATGTGGTTTGCCAGACGTTAGCGTACGGGAG,1110
8,CGAACCCGGGCTCCGCCCGCGCCGCAGACGCTCCTA,847
9,TGGAAGAGCCCCACCACATGTGCTTGCTGCGTGCTG,611
10,TCGGTGAAGGACGCAAGATGATAGCCACATTTCTTC,815
11,GGTGAAGGCTGCGGGGCGTCGCCGGGAGTGTCGTAA,715
12,TACGCTGTGGGCGGAGGCGGGCAGCAAATTCACTTA,703
13,CCCTCCGGCCCGCAGCCCTGCCCAAACGGAGGTGCA,864
14,TGCAGACTGCGGCGGCGGTGGTCTGAGGACGTTCTA,728
15,AGGTACCACACCAGACGGTAGGCCAGCAAATCGCAG,702
16,GTTCGAAAACCGCCCGGGCGCCTGTGGGACATGTAG,848
17,TTTGTGGCTCAAAATCACAGAGAAGCCTCCTATTGT,761
18,CCTCCCACCGCTCGCCTTCTTGCCGTAAGCTAAGTT,1290

row,Sequence,RUNX1 binding intensity
1,AATCCTGACCTCAAAAACCTCTGAATGTCTCCTTGT,1250
2,GGTGGAGGCGGTTGGCAGGGACGAAGGAGGGTGCCG,836
3,ACGGTTCTGACTGTGGTGATTAGGAATCAGGGCCGC,786 ± 15
4,GGTTGCCCCCCTCCTCTCTGTGGCACACACAGACCT,928
5,GCAGAAGGCAGTGTGGCTTGGCGCGGTGGCTCACAC,699
6,GTGTGGTAGGGCTAAGTTTCTCCCCAGAAAACCCCA,828
7,TTGGTGGCTCCCTGCCCAGGAGACCACACCCAGCTT,933
8,AACGTCCTCCGCGCGGGGCCACTGCTACCACAAAGG,926
9,ACTCTATTTAAGCCCGCAGCAGGGATCTGATCAGCC,825
10,GAGGGGAGGTGGTTTCACAGCTTGCTCCCTACCCAC,674
11,ACCATAGCCTGAGAATGAACCATGTGGTGGATGCAC,791
12,GAGGCTGTGGTCACATGGGGGGGGAGACAATAGCCC,868
13,GCCCCTCTTTCTGACTCACACAACCGCCTCTAGTCT,1540
14,ACTTGGCAGTTTCGGGTCCGCGCCCCACCGCGCCAC,871
15,TACATGCCGACCCACCGCAGGAGGAACTACTCACCC,963
16,CCGCCCACTGCCGTGTGGCCGCCGATTGGTTTTGCC,892
17,CTTCTTGCTGCTGAGACTGATACAGCCCGCAAAGCT,816

# — the supplement of paper PMC10681739
